Measured values reported in patent publication US20140044674A1 (Hoffmann-La Roche, published 2014).

Tests used:
[1] = molecular target: T1, recombinant human FAP coated on cell culture plates (human, UniProt Q12884 26-760, limits assumed); experiment: cell-based or functional assay
[2] = molecular target: T1, recombinant human FAP coated on cell …; experiment: cell-based or functional assay; remark: listed apart in the source
[3] = molecular target: T1, recombinant human FAP coated on cell …; experiment: cell-based or functional assay; remark: listed apart in the source
[4] = molecular target: T1, recombinant human FAP coated on cell …; experiment: cell-based or functional assay; remark: listed apart in the source
[5] = molecular target: T1, recombinant human FAP coated on cell …; experiment: cell-based or functional assay; remark: listed apart in the source
[6] = molecular target: T1, recombinant human FAP coated on cell …; experiment: cell-based or functional assay; remark: listed apart in the source
[7] = molecular target: T1, recombinant human FAP coated on cell …; experiment: cell-based or functional assay; remark: listed apart in the source
[8] = molecular target: T1, recombinant human FAP coated on cell …; experiment: cell-based or functional assay; remark: listed apart in the source
[9] = molecular target: T1, recombinant human FAP coated on cell …; experiment: cell-based or functional assay; remark: listed apart in the source
[10] = molecular target: T1, recombinant human FAP coated on cell …; experiment: cell-based or functional assay; remark: listed apart in the source
[11] = molecular target: T2, IL-10R on freshly isolated human blood monocytes (human, UniProt Q13651 22-578; Q08334 20-325); experiment: cell-based or functional assay
T2 sequence (looked up) 1: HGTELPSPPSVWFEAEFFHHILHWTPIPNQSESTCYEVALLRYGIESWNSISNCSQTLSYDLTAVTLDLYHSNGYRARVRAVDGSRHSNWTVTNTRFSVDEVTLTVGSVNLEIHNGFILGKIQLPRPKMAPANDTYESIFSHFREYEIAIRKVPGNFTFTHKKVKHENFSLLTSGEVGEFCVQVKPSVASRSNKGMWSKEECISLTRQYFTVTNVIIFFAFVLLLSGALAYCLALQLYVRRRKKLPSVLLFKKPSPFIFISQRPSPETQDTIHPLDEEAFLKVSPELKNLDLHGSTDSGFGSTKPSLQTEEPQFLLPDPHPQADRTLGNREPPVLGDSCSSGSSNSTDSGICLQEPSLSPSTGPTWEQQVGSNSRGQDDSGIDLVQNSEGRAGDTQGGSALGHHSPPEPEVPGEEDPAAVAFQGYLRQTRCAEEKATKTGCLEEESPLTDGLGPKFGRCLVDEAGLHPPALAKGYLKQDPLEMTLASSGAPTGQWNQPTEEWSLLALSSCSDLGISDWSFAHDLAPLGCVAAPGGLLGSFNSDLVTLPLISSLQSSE
T2 sequence (looked up) 2: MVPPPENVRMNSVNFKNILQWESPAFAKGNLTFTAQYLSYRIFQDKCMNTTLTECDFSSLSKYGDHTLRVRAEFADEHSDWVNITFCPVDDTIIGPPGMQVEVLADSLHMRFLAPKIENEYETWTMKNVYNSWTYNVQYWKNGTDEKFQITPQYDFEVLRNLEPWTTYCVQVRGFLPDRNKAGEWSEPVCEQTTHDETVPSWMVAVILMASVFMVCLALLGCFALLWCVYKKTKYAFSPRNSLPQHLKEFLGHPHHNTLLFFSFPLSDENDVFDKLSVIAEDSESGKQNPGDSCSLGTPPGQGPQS

His-tagged human FAP ECD = molecular target: T3, His-tagged human FAP ECD (human, UniProt Q12884 27-760); experiment: SPR ProteOn XPR36, 25 C; His-tagged FAP captured by anti-penta-His IgG, construct as analyte
T3 construct: also called hu FAP
Procedure: (§1) To determine the affinities to FAP, the target protein was captured via its H6-tag by a covalently immobilized anti-H6 antibody (FIG. 9A). Briefly, anti-penta His IgG (Qiagen #34660, mouse monoclonal antibody) was immobilized at high levels (up to ˜5.000 RU) at 30 μ/min onto separate vertical channels of a GLM chip by simultaneously activating all channels for 5 min with a freshly prepared mixture of 1-ethyl-3-(3-dimethylaminopropyl)-carboiimide (EDC) and N-hydroxysuccinimide (sNHS), subsequently injecting 15 μg/ml anti-penta His IgG in 10 mM sodium acetate buffer pH 4.5 for 180 sec. Channels were blocked using a 5-min injection of ethanolamine. H6-tagged FAP from different species (see SEQ ID NOs 81, 83 and 85) was captured from a 5 μg/ml dilution in running buffer along the vertical channels for 60 s at 30 μl/min to achieve ligand densities between ˜250 and 600 RU. In a one-shot kinetic assay set-up (OSK), antibody-IL-10 fusion constructs were injected as analytes along the horizontal channels in a five-fold dilution series ranging from 50 to 0.08 nM at 100 μl/min. Association phase was recorded for 180 s, dissociation phase for 600 s. […] Running buffer (PBST) was injected along the sixth channel to provide an “in-line” blank for referencing. Association rates (kₒₙ) and dissociation rates (koff) were calculated using a simple 1:1 Langmuir binding model (ProteOn Manager software version 2.1) by simultaneously fitting the association and dissociation sensorgrams. The equilibrium dissociation constant (KD) was calculated as the ratio koff/kₒₙ.

His-tagged mouse FAP ECD [12] = molecular target: T4, His-tagged mouse FAP ECD (mouse, UniProt P97321 27-761); experiment: as above
T4 construct: also called mu FAP; murine FAP
Procedure: as §1

[13] = molecular target: T5, His-tagged cynomolgus FAP ECD (cynomolgus, UniProt Q12884 27-760 (human entry)); experiment: as above
T5 construct: also called cyno FAP
Procedure: as §1

His-tagged mouse FAP ECD [14] = molecular target: T4, His-tagged mouse FAP ECD; experiment: SPR ProteOn XPR36, 25 C; His-tagged FAP captured by anti-penta-His IgG, construct as analyte; KD calculated with the estimated koff
Procedure: as §1

His-tagged mouse FAP ECD [15] = molecular target: T4, His-tagged mouse FAP ECD; experiment: SPR ProteOn XPR36, 25 C; His-tagged FAP captured by anti-penta-His IgG, construct as analyte; off-rate could not be fitted, estimate used
Procedure: as §1

EC50, suppression of LPS-induced hIL-1β production by monocytes, set-up (b) (immobilized), donor 1 [1]: 0.085 nM
EC50, suppression of LPS-induced hIL-6 production by monocytes, set-up (b) (immobilized), donor 1 [1]: 0.103 nM
EC50, suppression of LPS-induced hTNFα production by monocytes, set-up (b) (immobilized), donor 1 [1]: 0.017 nM
EC50, suppression of LPS-induced hIL-1β production by monocytes, set-up (b) (immobilized), donor 2 [2]: 0.023 nM
EC50, suppression of LPS-induced hIL-6 production by monocytes, set-up (b) (immobilized), donor 2 [2]: 0.06 nM
EC50, suppression of LPS-induced hTNFα production by monocytes, set-up (b) (immobilized), donor 2 [2]: 0.017 nM
EC50, suppression of LPS-induced hIL-1β production by monocytes, set-up (b) (immobilized), donor 3 [3]: 0.036 nM
EC50, suppression of LPS-induced hIL-6 production by monocytes, set-up (b) (immobilized), donor 3 [3]: 0.057 nM
EC50, suppression of LPS-induced hTNFα production by monocytes, set-up (b) (immobilized), donor 3 [3]: 0.025 nM
EC50 [nM] IL-6, suppression of IL-6 production by monocytes, set-up (b) (immobilized), donor 4 [4]: 0.081 nM
hIL-6 EC50 [nM], construct immobilized on FAP coated at 1 µg/ml, monocytes donor 5 [5]: 0.029 nM
hIL-6 EC50 [nM], construct immobilized on FAP coated at 5 µg/ml, monocytes donor 5 [5]: 0.016 nM
EC50 [nM] IL-6, suppression of IL-6 production by monocytes, Set-up (b), donor 7 [6]: 0.065 nM
EC50, suppression of hIL-1β production by monocytes, set-up (b) (immobilized), donor 1 [7]: 0.085 nM
EC50, suppression of hIL-6 production by monocytes, set-up (b) (immobilized), donor 1 [7]: 0.103 nM
EC50, suppression of hTNFα production by monocytes, set-up (b) (immobilized), donor 1 [7]: 0.017 nM
EC50, suppression of hIL-1β production by monocytes, set-up (b) (immobilized), donor 2 [8]: 0.023 nM
EC50, suppression of hIL-6 production by monocytes, set-up (b) (immobilized), donor 2 [8]: 0.06 nM
EC50, suppression of hTNFα production by monocytes, set-up (b) (immobilized), donor 2 [8]: 0.017 nM
EC50, suppression of hIL-1β production by monocytes, set-up (b) (immobilized), donor 3 [9]: 0.036 nM
EC50, suppression of hIL-6 production by monocytes, set-up (b) (immobilized), donor 3 [9]: 0.057 nM
EC50, suppression of hTNFα production by monocytes, set-up (b) (immobilized), donor 3 [9]: 0.025 nM
EC50, suppression of hIL-1β production by monocytes, set-up (b) (immobilized) [10]: 0.003 nM
EC50, suppression of hIL-6 production by monocytes, set-up (b) (immobilized) [10]: 0.02 nM
EC50, suppression of hTNFα production by monocytes, set-up (b) (immobilized) [10]: 0.001 nM
EC50 [nM] pSTAT3 induction, primary monocytes, Donor 1 [11]: 0.154 nM
EC50 [nM] pSTAT3 induction, primary monocytes, Donor 2 [11]: 0.194 nM
EC50 [nM] pSTAT3 induction, primary monocytes, Donor 3 [11]: 0.087 nM
Kd (His-tagged human FAP ECD): 0.0521 nM
koff (His-tagged human FAP ECD): 0.000169 s⁻¹
kon (His-tagged human FAP ECD): 3.24e+06 M⁻¹ s⁻¹
kon (His-tagged mouse FAP ECD [12]): 1.77e+06 M⁻¹ s⁻¹
Kd [13]: 0.0364 nM
koff [13]: 0.000129 s⁻¹
kon [13]: 3.55e+06 M⁻¹ s⁻¹
Kd (His-tagged mouse FAP ECD [14]): 0.00565 nM
koff (His-tagged mouse FAP ECD [15]): ~1e-05 s⁻¹
B1: 4G8 Fab-IL-10 (other)
heavy: [about 100 residues omitted here]GWLGNFDYWGQGTLVTVSSASTKGPSVFPLAPSSKSTSGGTAALGCLVKDYFPEPVTVSWNSGALTSGVHTFPAVLQSSGLYSLSSVVTVPSSSLGTQTYICNVNHKPSNTKVDKKVEPKSCDGGGGSGGGGSGGGGSSPGQGTQSENSCTHFPGNLPNMLRDLRDAFSRVKTFFQMKDQLDNLLLKESLLEDFKGYLGCQALSEMIQFYLEEVMPQAENQDPDIKAHVNSLGENLKTLRLRLRRCHRFLPCENKSKAVEQVKNAFNKLQEKGIYKAMSEFDIFINYIEAYMTMKIRN
light: EIVLTQSPGTLSLSPGERATLSCRASQSVSRSYLAWYQQKPGQAPRLLIIGASTRATGIPDRFSGSGSGTDFTLTISRLEPEDFAVYYCQQGQVIPPTFGQGTKVEIKRTVAAPSVFIFPPSDEQLKSGTASVVCLLNNFYPREAKVQWKVDNALQSGNSQESVTEQDSKDSTYSLSSTLTLSKADYEKHKVYACEVTHQGLSSPVTKSFNRGEC
notes: also called Fab-IL-10 (clone 4G8)
